The campaign covered roughly 110,000 compounds. About 230 (0.21%) showed an effect of 50% or more. The list shows a part of the results.
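Further: 30 min substrate incubation versus DMSO and 10 µM JCP410 controls.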

In the test the target is DPAP1 (Plasmodium falciparum, UniProt Q8IIJ9). Description: primary screen, percent inhibition; read by cleavage of a fluorogenic dipeptide substrate; higher = more effect of the substance. Also noted: species or system P. falciparum D10 trophozoite lysates; single well.
DPAP1, sequence (Q8IIJ9 whole entry, looked up): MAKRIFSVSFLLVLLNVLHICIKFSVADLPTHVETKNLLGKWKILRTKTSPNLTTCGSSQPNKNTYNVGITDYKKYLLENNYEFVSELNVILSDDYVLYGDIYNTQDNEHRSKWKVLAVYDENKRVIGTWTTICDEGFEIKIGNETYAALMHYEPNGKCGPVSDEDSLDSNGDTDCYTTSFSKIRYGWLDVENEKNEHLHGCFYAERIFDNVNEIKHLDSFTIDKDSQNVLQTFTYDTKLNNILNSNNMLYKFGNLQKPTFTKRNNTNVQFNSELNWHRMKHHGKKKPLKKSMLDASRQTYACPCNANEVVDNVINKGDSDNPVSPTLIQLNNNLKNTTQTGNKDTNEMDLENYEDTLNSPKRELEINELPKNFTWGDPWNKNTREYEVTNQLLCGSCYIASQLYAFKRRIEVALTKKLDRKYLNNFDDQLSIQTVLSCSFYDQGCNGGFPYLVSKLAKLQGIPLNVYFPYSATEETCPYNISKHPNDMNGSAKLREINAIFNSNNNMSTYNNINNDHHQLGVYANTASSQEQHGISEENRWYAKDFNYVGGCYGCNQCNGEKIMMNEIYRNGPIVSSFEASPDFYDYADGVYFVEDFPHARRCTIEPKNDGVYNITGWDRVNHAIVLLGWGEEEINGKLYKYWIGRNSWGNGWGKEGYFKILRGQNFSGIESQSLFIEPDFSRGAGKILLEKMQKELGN
Regarding `Cc1onc(-c2ccccc2Cl)c1-c1nc(-c2ccc3c(c2)OCO3)no1`, the “% Inhibition @ 10 uM” value is recorded as -1.85%.
The value for `CC1(C)C(C=C(Cl)Cl)C1C(=O)Nc1cccc(C(=O)O)c1` (centres unmarked) was -5.16%; that for `CC(=O)NCC12CC3CC(C1)CC(C(=O)O)(C3)C2` was -3.1%.
The value for `CCOC(=O)C1=CN(Cc2ccc(OC)cc2)C=C(C(=O)OCC)C1c1cccs1` was -3.23%.
For `Cc1c(C(=O)NCCCN2CCCC2=O)oc2ccc(S(=O)(=O)N3CCCCC3)cc12`, the “% Inhibition @ 10 uM” value was -1.34%.
In the case of `Cc1ccc(C)c(NC(=O)CCC(=O)Nc2cc(C)ccc2C)c1` it was 2.01%; in that of `CC1(C)CC2(CCO1)OC(=O)CC2C(=O)NCc1ccco1` (centres unmarked), -0.386%; in that of `COc1ccc(C(=O)N2CCc3cc(OC)c(OC)cc3C2COc2ccccc2OC)cc1OC` (centres unmarked), -1.62%.
For `COC(=O)c1cnn2c(O)c(C(C)C)c(C)nc12`, the “% Inhibition @ 10 uM” value is recorded as -5.8%.
With `CC[C@H](NC(=O)C(Cc1c(F)cccc1F)NC(=O)c1cc(-c2ccccc2)c(-c2ccccc2)s1)C(=O)c1nc2ccccc2o1` (some centres unmarked), the “% Inhibition @ 10 uM” value was -6.98%.
The value for `CCOC(=O)C1CCN(CC(C)CCC=C(C)C)CC1` (centres unmarked) was 2.1%; that for `N#C/C(=C\c1ccc(Cl)cc1Cl)c1nc(-c2ccc(Cl)c(Cl)c2)cs1` was -4.08%.
The value for `CC1(C)CC2=Nc3ncnn3C(c3ccccc3F)C2=C(O)C1` (centres unmarked) was 0.778%.
As to `CC(NC(=O)Cn1ncc2c(Cl)cccc21)c1ccccc1` (centres unmarked), the “% Inhibition @ 10 uM” value was -1.11%.
In the case of `Cc1ccc(Oc2cc(-n3nc(C)c(C#N)c3N)ncn2)cc1` it was -6.08%; in that of `CN1CCc2nc3sc4c(=O)[nH]c(=O)[nH]c4c3c(-c3cccs3)c2C1`, 1.17%.
In the case of `CCOc1ccc(CC(=O)C2=C(NCC(=O)O)CC(C)(C)CC2=O)cc1OCC` it was -0.834%.
In the case of `O=C(Nc1nc2ccccc2s1)C1CC=CCC1C(=O)OCC(Cl)=C(Cl)Cl` (centres unmarked) it was -3.66%; in that of `O=C1C(Cl)=C(Nc2cccc(O)c2)C(=O)N1c1ccccc1Cl`, -0.413%.
Consider `c1ccc(N2CCN(Cc3cccs3)CC2)cc1`, for which the “% Inhibition @ 10 uM” value was -0.192%.
As for `CC1(C)CC(=O)C(=CN2CCOCC2)C(=O)C1`, the “% Inhibition @ 10 uM” value is given as -3.21%.
`O=C(COc1ccc(Cl)cc1)Nc1ccc(CN2CCOCC2)cc1`: the “% Inhibition @ 10 uM” value was -1.63%.
In the case of `COCCNC(=O)C(NC(=O)C1CCC(C)CC1)C(C)C` (centres unmarked) it was -4.86%.
As for `COc1ccc(OCCCCN2CCCCC2)cc1`, the “% Inhibition @ 10 uM” value stood at 3%.
The value for `c1ccc(N[n+]2ccc3ccccc3c2)nc1` was -2.74%; that for `COc1cc(CN2CCN(Cc3cccc(Cl)c3)CC2)cc(OC)c1` was 3.86%; that for `COc1cc(C(=O)OCc2nc3ccccc3s2)cc(OC)c1OC` was 1.76%.
The value for `CN1CCN(C2CCCCCCC2)CC1` was -0.0908%; that for `O=C(Nc1ccc(F)c(F)c1)C1CC(=O)N(c2ccc(Br)cc2)C1` (centres unmarked) was 5.63%.
Turning to `CCCOc1ccc(C2c3c(-c4ccccc4O)n[nH]c3C(=O)N2CCCOC(C)C)cc1OCC` (centres unmarked), the “% Inhibition @ 10 uM” value amounted to 2.02%.
In the case of `CC(NC(=O)C1CCCN1S(=O)(=O)c1cccc2nsnc12)c1ccccc1` (centres unmarked) it was -0.465%; in that of `O=P(O)(CN1CCCCC1)CN1CCCCC1`, -2.18%; in that of `CC1=C(C(=O)Nc2ccncc2)C2(CCCCC2)OC1=O`, 1.55%.
The value for `CCC(=O)Nc1nnc(S(=O)(=O)NCc2ccccc2)s1` was 0.00665%; that for `CCN(CC)CCN(C)C/C(Cl)=C/c1ccccc1` was -6.62%; that for `CN(C)CCC1Sc2ccccc2Oc2ccccc21` (centres unmarked) was -3.45%.
In the case of `C=CCN1C(=O)NC(=O)/C(=C/c2ccc(OCc3cccc(C)c3)c(OCC)c2)C1=O` it was 3.25%; in that of `Clc1ccc(Cn2cccc2C2=NCCO2)cc1`, -1.58%; in that of `CC1CCN(C(=O)CN2N=C(c3ccccc3)CCC2=O)CC1`, -1.21%.
Take `O=C(c1ccc(Cl)cc1Cl)C(c1cccnc1)C(O)C(Cl)(Cl)Cl` (centres unmarked): the “% Inhibition @ 10 uM” value was found to be 2.48%.
Consider `Cc1cc(C)c(C)c(OCCCCCCN2CCCCC2)c1`, for which the “% Inhibition @ 10 uM” value was -0.351%.
In the case of `CCOc1ccccc1N1CCN(Cc2cc(OC)c(O)c(OC)c2)CC1` it was 2.92%; in that of `Cc1cc(C=C2C(=O)NC(=O)NC2=O)c(C)n1-c1ccc(Br)cc1`, 15.8%.
With `CCCCN(C)C(=O)C1CCN(C(=O)c2c(C)nn(-c3ccccc3)c2-n2cccc2)CC1`, the “% Inhibition @ 10 uM” value stood at 1.8%.
In the case of `C#CCOc1ccc(Br)cc1C1C(C#N)=C(N)Oc2cc3c(cc21)OCO3` (centres unmarked) it was -1.17%; in that of `Clc1ccc(CNc2nc3ccccc3[nH]2)cc1Cl`, -5.7%.
The value for `O=C(COc1ccccc1Cl)Nc1cc(F)ccc1F` was 0.214%.
The value for `FC(F)(F)c1cccc(N2CCN(Cc3ccc(Br)o3)CC2)c1` was -3.71%; that for `Cc1cc(NC(=O)c2cc(-c3ccco3)on2)n(-c2ccccc2)n1` was -5.85%; that for `Cn1c(SCc2nn[nH]n2)nc2c1c(=O)n(Cc1ccccc1Cl)c(=O)n2C` was -1.72%.

For the origin of these results see publication PMC6919601, “Identification of Plasmodium dipeptidyl aminopeptidase allosteric inhibitors by high throughput screening” (PLoS ONE, 2019).
